The target in this experiment is T1, N-terminally FLAG-tagged EcR (Drosophila) (UniProt P34021).
T1 sequence: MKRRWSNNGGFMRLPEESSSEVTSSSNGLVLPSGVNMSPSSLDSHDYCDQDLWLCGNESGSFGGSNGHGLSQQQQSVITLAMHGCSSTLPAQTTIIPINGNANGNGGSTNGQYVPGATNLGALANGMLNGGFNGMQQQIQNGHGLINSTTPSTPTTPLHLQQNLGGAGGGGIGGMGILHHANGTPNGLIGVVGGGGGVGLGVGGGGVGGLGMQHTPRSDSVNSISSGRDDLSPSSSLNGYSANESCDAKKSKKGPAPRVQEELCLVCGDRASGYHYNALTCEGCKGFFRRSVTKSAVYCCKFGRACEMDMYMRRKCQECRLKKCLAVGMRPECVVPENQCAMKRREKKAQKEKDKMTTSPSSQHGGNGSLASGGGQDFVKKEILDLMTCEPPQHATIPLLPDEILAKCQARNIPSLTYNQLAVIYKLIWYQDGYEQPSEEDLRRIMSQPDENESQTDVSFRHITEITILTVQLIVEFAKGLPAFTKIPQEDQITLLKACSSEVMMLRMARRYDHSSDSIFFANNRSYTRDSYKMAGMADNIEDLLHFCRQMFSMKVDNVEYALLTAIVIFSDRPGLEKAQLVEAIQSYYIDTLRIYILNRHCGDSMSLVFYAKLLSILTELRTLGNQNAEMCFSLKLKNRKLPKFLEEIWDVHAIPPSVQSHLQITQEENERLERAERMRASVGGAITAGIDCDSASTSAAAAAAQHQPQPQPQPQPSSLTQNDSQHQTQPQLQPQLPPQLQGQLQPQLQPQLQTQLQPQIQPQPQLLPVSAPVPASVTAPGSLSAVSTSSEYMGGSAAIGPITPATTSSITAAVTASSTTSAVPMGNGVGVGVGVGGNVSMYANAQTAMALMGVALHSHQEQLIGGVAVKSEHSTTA
As to the kind of experiment: co-IP; Sf9 cells co-infected with baculoviruses; whole-cell extract on FLAG agarose, 4 h at 4 °C; washed with high salt buffer (20 mM Hepes pH 7.6, 1000 mM KCl, 0.1% NP40, 10% glycerol); SDS-PAGE and Coomassie staining; also with ecdysone-treated cells and charcoal-treated serum.

Amino acid sequences for entries named in this document (tags omitted).
UniProt O97159: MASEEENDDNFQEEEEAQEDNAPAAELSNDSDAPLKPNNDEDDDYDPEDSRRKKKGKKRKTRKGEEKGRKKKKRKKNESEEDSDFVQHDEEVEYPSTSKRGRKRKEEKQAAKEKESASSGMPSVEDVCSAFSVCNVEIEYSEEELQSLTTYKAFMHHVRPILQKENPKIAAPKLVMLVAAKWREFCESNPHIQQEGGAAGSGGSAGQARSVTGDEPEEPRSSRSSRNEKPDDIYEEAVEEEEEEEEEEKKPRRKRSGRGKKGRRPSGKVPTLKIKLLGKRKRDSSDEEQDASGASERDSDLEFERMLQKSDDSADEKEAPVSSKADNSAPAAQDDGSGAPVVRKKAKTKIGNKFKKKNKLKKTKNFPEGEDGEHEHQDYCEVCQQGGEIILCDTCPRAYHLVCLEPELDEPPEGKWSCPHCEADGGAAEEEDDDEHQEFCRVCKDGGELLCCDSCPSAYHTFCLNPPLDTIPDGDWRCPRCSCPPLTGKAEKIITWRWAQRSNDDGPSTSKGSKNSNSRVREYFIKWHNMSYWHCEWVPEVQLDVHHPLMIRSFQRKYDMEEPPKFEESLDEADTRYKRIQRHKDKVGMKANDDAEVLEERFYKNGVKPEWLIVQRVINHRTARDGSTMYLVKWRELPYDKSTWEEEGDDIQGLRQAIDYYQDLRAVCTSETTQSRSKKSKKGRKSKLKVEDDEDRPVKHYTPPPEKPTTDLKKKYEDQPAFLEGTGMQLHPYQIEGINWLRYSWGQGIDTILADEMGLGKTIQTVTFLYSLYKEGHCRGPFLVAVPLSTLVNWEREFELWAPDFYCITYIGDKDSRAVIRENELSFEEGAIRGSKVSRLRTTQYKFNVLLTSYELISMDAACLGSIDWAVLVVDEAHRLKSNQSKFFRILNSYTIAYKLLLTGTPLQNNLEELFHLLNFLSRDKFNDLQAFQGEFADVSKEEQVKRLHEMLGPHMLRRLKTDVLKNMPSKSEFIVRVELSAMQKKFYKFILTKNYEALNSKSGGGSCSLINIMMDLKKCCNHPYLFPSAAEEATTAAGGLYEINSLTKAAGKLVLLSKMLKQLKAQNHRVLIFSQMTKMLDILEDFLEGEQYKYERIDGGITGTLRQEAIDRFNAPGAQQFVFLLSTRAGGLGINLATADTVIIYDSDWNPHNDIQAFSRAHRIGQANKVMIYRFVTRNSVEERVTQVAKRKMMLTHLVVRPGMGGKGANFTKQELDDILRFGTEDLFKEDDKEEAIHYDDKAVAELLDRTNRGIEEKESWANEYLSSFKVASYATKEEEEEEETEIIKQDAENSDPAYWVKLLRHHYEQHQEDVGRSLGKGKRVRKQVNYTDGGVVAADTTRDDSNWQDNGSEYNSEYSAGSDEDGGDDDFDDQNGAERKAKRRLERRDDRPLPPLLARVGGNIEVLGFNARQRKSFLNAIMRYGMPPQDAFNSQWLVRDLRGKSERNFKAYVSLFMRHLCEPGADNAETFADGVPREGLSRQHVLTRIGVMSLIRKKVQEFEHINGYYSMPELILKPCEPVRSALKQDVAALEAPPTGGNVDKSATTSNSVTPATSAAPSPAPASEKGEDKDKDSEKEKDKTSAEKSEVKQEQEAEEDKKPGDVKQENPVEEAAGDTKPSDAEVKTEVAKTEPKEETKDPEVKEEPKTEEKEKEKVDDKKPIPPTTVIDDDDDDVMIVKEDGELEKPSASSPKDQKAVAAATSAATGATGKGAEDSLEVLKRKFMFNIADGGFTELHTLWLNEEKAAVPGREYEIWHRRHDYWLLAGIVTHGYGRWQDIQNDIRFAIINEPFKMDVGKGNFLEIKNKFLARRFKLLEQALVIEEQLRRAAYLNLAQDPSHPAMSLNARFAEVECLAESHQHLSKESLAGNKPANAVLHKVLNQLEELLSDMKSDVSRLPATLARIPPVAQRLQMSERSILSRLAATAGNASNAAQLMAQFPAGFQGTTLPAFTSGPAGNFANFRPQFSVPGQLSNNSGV

No constants are given. Whether binding was seen depends on the method and setting. Binding seen in cells or lysates may run through a third protein. Some entries that bind do so weakly or less than the wild type. Tags and fused reporters may be left off the sequences shown.

In the case of “dMi-2 (untagged, baculovirus-expressed) (from UniProt O97159 1-1982)”, the binding entry is recorded as “binds”.

For the origin of these results see paper PMC5382322.
